# The other results are listed elsewhere or left out.
# B1: Thrombomodulin (Mus musculus) (protein)
# chain: ALAKLQPTGSQCVEHECFALFQGPATFLDASQACQRLQGHLMTVRSSVAADVISLLLSQSSMDLGPWIGLQLPQGCDDPVHLGPLRGFQWVTGDNHTSYSRWARPNDQTAPLCGPLCVTVSTATEAAPGEPAWEEKPCETETQGFLCEFYFTASC
# Columns and labels:
# Assay in all cases: glycan array binding signal (z-score within array); higher = stronger binding
# Details in all cases: glycan notation: IUPAC condensed, linker removed
# [1] = target: Gal(b1-4)GlcNAc(b1-2)[Gal(b1-4)GlcNAc(b1-6)]Man(a1-6)[GlcNAc(b1-4)][Gal(b1-4)GlcNAc(b1-2)Man(a1-3)]Man(b1-4)GlcNAc(b1-4)GlcNAc
# Procedure, shortened: (§1)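 The binding signal is a Z-score computed within each array. Data were drawn from 3228 arrays in the Consortium for Functional Glycomics database, restricted to those with a known protein sequence. Scores were averaged over arrays of the same protein sequence at different concentrations or buffers, and over linkers, and negative values can be taken as non-binding.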
# [2] = target: Gal(b1-4)GlcNAc(b1-2)[Gal(b1-4)GlcNAc(b1-6)]Man(a1-6)[GlcNAc(b1-4)][Gal(b1-4)GlcNAc(b1-2)[Gal(b1-4)GlcNAc(b1-4)]Man(a1-3)]Man(b1-4)GlcNAc(b1-4)[Fuc(a1-6)]GlcNAc
# Procedure, shortened: as §1
# [3] = target: Gal(b1-4)GlcNAc(b1-3)Gal(b1-3)GalNAc
# Procedure, shortened: as §1
# [4] = target: Gal(b1-4)GlcNAc(b1-3)Gal(b1-3)GlcNAc
# Procedure, shortened: as §1
# [5] = target: Gal(b1-4)GlcNAc(b1-3)Gal(b1-4)Glc
# Procedure, shortened: as §1
# [6] = target: Gal(b1-4)GlcNAc(b1-3)Gal(b1-4)GlcNAc
# Procedure, shortened: as §1
# [7] = target: Gal(b1-4)GlcNAc(b1-3)Gal(b1-4)GlcNAc(b1-2)Man(a1-3)[Gal(b1-4)GlcNAc(b1-3)Gal(b1-4)GlcNAc(b1-2)Man(a1-6)]Man(b1-4)GlcNAc(b1-4)GlcNAc
# Procedure, shortened: as §1
# [8] = target: Gal(b1-4)GlcNAc(b1-3)Gal(b1-4)GlcNAc(b1-2)Man(a1-3)[Gal(b1-4)GlcNAc(b1-3)Gal(b1-4)GlcNAc(b1-2)Man(a1-6)]Man(b1-4)GlcNAc(b1-4)[Fuc(a1-6)]GlcNAc
# Procedure, shortened: as §1
# [9] = target: Gal(b1-4)GlcNAc(b1-3)Gal(b1-4)GlcNAc(b1-2)[Gal(b1-4)GlcNAc(b1-3)Gal(b1-4)GlcNAc(b1-6)]Man(a1-6)[Gal(b1-4)GlcNAc(b1-3)Gal(b1-4)GlcNAc(b1-2)Man(a1-3)]Man(b1-4)GlcNAc(b1-4)GlcNAc
# Procedure, shortened: as §1
# [10] = target: Gal(b1-4)GlcNAc(b1-3)Gal(b1-4)GlcNAc(b1-2)[Gal(b1-4)GlcNAc(b1-3)Gal(b1-4)GlcNAc(b1-6)]Man(a1-6)[Gal(b1-4)GlcNAc(b1-3)Gal(b1-4)GlcNAc(b1-2)Man(a1-3)]Man(b1-4)GlcNAc(b1-4)[Fuc(a1-6)]GlcNAc
# Procedure, shortened: as §1
# [11] = target: Gal(b1-4)GlcNAc(b1-3)Gal(b1-4)GlcNAc(b1-3)Gal(b1-4)GlcNAc
# Procedure, shortened: as §1
# [12] = target: Gal(b1-4)GlcNAc(b1-3)Gal(b1-4)GlcNAc(b1-3)Gal(b1-4)GlcNAc(b1-2)Man(a1-3)[Gal(b1-4)GlcNAc(b1-3)Gal(b1-4)GlcNAc(b1-3)Gal(b1-4)GlcNAc(b1-2)Man(a1-6)]Man(b1-4)GlcNAc(b1-4)GlcNAc
# Procedure, shortened: as §1
# [13] = target: Gal(b1-4)GlcNAc(b1-3)Gal(b1-4)GlcNAc(b1-3)Gal(b1-4)GlcNAc(b1-2)Man(a1-3)[Gal(b1-4)GlcNAc(b1-3)Gal(b1-4)GlcNAc(b1-3)Gal(b1-4)GlcNAc(b1-2)Man(a1-6)]Man(b1-4)GlcNAc(b1-4)[Fuc(a1-6)]GlcNAc
# Procedure, shortened: as §1
# [14] = target: Gal(b1-4)GlcNAc(b1-3)Gal(b1-4)GlcNAc(b1-3)Gal(b1-4)GlcNAc(b1-2)[Gal(b1-4)GlcNAc(b1-3)Gal(b1-4)GlcNAc(b1-3)Gal(b1-4)GlcNAc(b1-6)]Man(a1-6)[Gal(b1-4)GlcNAc(b1-3)Gal(b1-4)GlcNAc(b1-3)Gal(b1-4)GlcNAc(b1-2)Man(a1-3)]Man(b1-4)GlcNAc(b1-4)[Fuc(a1-6)]GlcNAc
# Procedure, shortened: as §1
# [15] = target: Gal(b1-4)GlcNAc(b1-3)Gal(b1-4)GlcNAc(b1-3)Gal(b1-4)GlcNAc(b1-3)Gal(b1-4)GlcNAc(b1-2)Man(a1-3)[Gal(b1-4)GlcNAc(b1-3)Gal(b1-4)GlcNAc(b1-3)Gal(b1-4)GlcNAc(b1-3)Gal(b1-4)GlcNAc(b1-2)Man(a1-6)]Man(b1-4)GlcNAc(b1-4)GlcNAc
# Procedure, shortened: as §1
# [16] = target: Gal(b1-4)GlcNAc(b1-3)Gal(b1-4)GlcNAc(b1-3)Gal(b1-4)GlcNAc(b1-3)Gal(b1-4)GlcNAc(b1-2)Man(a1-3)[Gal(b1-4)GlcNAc(b1-3)Gal(b1-4)GlcNAc(b1-3)Gal(b1-4)GlcNAc(b1-3)Gal(b1-4)GlcNAc(b1-2)Man(a1-6)]Man(b1-4)GlcNAc(b1-4)[Fuc(a1-6)]GlcNAc
# Procedure, shortened: as §1
# [17] = target: Gal(b1-4)GlcNAc(b1-3)Gal(b1-4)GlcNAc(b1-3)Gal(b1-4)GlcNAc(b1-3)Gal(b1-4)GlcNAc(b1-2)[Gal(b1-4)GlcNAc(b1-3)Gal(b1-4)GlcNAc(b1-3)Gal(b1-4)GlcNAc(b1-3)Gal(b1-4)GlcNAc(b1-6)]Man(a1-6)[Gal(b1-4)GlcNAc(b1-3)Gal(b1-4)GlcNAc(b1-3)Gal(b1-4)GlcNAc(b1-3)Gal(b1-4)GlcNAc(b1-2)Man(a1-3)]Man(b1-4)GlcNAc(b1-4)[Fuc(a1-6)]GlcNAc
# Procedure, shortened: as §1
# [18] = target: Gal(b1-4)GlcNAc(b1-3)Gal(b1-4)GlcNAc(b1-3)Gal(b1-4)GlcNAc(b1-3)Gal(b1-4)GlcNAc(b1-3)Gal(b1-4)GlcNAc(b1-2)Man(a1-3)[Gal(b1-4)GlcNAc(b1-3)Gal(b1-4)GlcNAc(b1-3)Gal(b1-4)GlcNAc(b1-3)Gal(b1-4)GlcNAc(b1-3)Gal(b1-4)GlcNAc(b1-2)Man(a1-6)]Man(b1-4)GlcNAc(b1-4)GlcNAc
# Procedure, shortened: as §1
# [19] = target: Gal(b1-4)GlcNAc(b1-3)Gal(b1-4)GlcNAc(b1-3)Gal(b1-4)GlcNAc(b1-3)Gal(b1-4)GlcNAc(b1-3)Gal(b1-4)GlcNAc(b1-2)Man(a1-3)[Gal(b1-4)GlcNAc(b1-3)Gal(b1-4)GlcNAc(b1-3)Gal(b1-4)GlcNAc(b1-3)Gal(b1-4)GlcNAc(b1-3)Gal(b1-4)GlcNAc(b1-2)Man(a1-6)]Man(b1-4)GlcNAc(b1-4)[Fuc(a1-6)]GlcNAc
# Procedure, shortened: as §1
# [20] = target: Gal(b1-4)GlcNAc(b1-3)Gal(b1-4)GlcNAc(b1-3)Gal(b1-4)GlcNAc(b1-3)Gal(b1-4)GlcNAc(b1-3)Gal(b1-4)GlcNAc(b1-2)[Gal(b1-4)GlcNAc(b1-3)Gal(b1-4)GlcNAc(b1-3)Gal(b1-4)GlcNAc(b1-3)Gal(b1-4)GlcNAc(b1-3)Gal(b1-4)GlcNAc(b1-6)]Man(a1-6)[Gal(b1-4)GlcNAc(b1-3)Gal(b1-4)GlcNAc(b1-3)Gal(b1-4)GlcNAc(b1-3)Gal(b1-4)GlcNAc(b1-3)Gal(b1-4)GlcNAc(b1-2)Man(a1-3)]Man(b1-4)GlcNAc(b1-4)[Fuc(a1-6)]GlcNAc
# Procedure, shortened: as §1
# [21] = target: Gal(b1-4)GlcNAc(b1-3)Gal(b1-4)GlcNAc(b1-3)Gal(b1-4)GlcNAc(b1-3)Gal(b1-4)GlcNAc(b1-3)Gal(b1-4)GlcNAc(b1-3)Gal(b1-4)GlcNAc(b1-2)Man(a1-3)[Gal(b1-4)GlcNAc(b1-3)Gal(b1-4)GlcNAc(b1-3)Gal(b1-4)GlcNAc(b1-3)Gal(b1-4)GlcNAc(b1-3)Gal(b1-4)GlcNAc(b1-3)Gal(b1-4)GlcNAc(b1-2)Man(a1-6)]Man(b1-4)GlcNAc(b1-4)GlcNAc
# Procedure, shortened: as §1
# [22] = target: Gal(b1-4)GlcNAc(b1-3)Gal(b1-4)GlcNAc(b1-3)GalNAc
# Procedure, shortened: as §1
# [23] = target: Gal(b1-4)GlcNAc(b1-3)Gal(b1-4)GlcNAc(b1-3)[Gal(b1-4)GlcNAc(b1-3)Gal(b1-4)GlcNAc(b1-6)]GalNAc
# Procedure, shortened: as §1
binder,measurement,setting,value
B1,glycan array binding signal (z-score),[1],-0.282
same,glycan array binding signal (z-score),[2],-0.285
same,glycan array binding signal (z-score),[3],0.012
same,glycan array binding signal (z-score),[4],-0.073
same,glycan array binding signal (z-score),[5],0.285
same,glycan array binding signal (z-score),[6],-0.067
same,glycan array binding signal (z-score),[7],1.25
same,glycan array binding signal (z-score),[8],-0.049
same,glycan array binding signal (z-score),[9],-0.006
same,glycan array binding signal (z-score),[10],0.053
same,glycan array binding signal (z-score),[11],-0.277
same,glycan array binding signal (z-score),[12],0.084
same,glycan array binding signal (z-score),[13],0.364
same,glycan array binding signal (z-score),[14],0.05
same,glycan array binding signal (z-score),[15],-0.219
same,glycan array binding signal (z-score),[16],0.13
same,glycan array binding signal (z-score),[17],-0.014
same,glycan array binding signal (z-score),[18],0.205
same,glycan array binding signal (z-score),[19],-0.018
same,glycan array binding signal (z-score),[20],0.147
same,glycan array binding signal (z-score),[21],-0.233
same,glycan array binding signal (z-score),[22],0.141
same,glycan array binding signal (z-score),[23],0.052

# Source: the supplement of paper PMC8728848
